Data taken from the RNAGym collection of RNA variant scans (doi:10.1073/pnas.2313332121).
This sample is rich in variants without activity.

B1: TPR 5TU (parent)
chain: GGAUCUUCUCGAUCUAACAAAAAAGACAAAUCUGCCACAAAGCUUGAGAGCAUCUUCGGAUGCAGAGGCGGCAGCCUUCGGUGGCGCGAUAGCGCCAACGUUCUCAACUAUGACACGCAAAACGCGUGCUCCGUUGAAUGGAGUUUAUCAUG

Variants of: B1
Assay: polymerase ribozyme fitness, log enrichment relative to wild type (log ratio); higher = more active; in vitro selection for triplet polymerase activity
In short: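 A heterodimeric triplet polymerase ribozyme had each of its subunits mutagenized by PCR into a library, which was transcribed. One round of in vitro selection, done in triplicate, annealed each library with a biotinylated primer, its partner subunit and triplets, then incubated it frozen at −7 °C before gel excision of extended constructs, streptavidin-bead capture and RT-PCR. Fitness is the logarithm of genotype enrichment relative to wild-type enrichment, based on Illumina sequencing of inputs and outputs and inverse-variance-weighted replicate averages. A base-2 logarithm is used, and genotypes were kept only with ≥10 input reads and ≥1 read per output.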

Variant	polymerase ribozyme fitness (log ratio)
GGAUCUUCUCGAUCUAACACAAAAGACAAAUCUGCCACAAAGCUUGAGAGCAUCUUCGGAUGCAGAGGCGGCAGCCUUCGGUGGCGUGAUAGCGCCAACGUUCUCAACUAUGACACGCAAAACGCGUGCUCCGUUGAAUGGAGUUUAUCAUG [A20C C87U]	-1.36
GGAUCUUCUCGAUCUAACACAAAAGACAAAUCUGCCACAAAGCUUGAGAGCAUCUUCGGAUGCAGAGGCGGCAGCCUUCGGUGGCGUGAUAGCGCUAACGUGCUCAACUAUGACACGCAAAACGCGUGCGCCGUUGAAUGGAAUUUAUCAUG [A20C C87U C96U U102G U130G G143A]	≤ -4.2
GGAUCUUCUCGAUCUAACACAAAAGACAAAUCUGCCACAAAGCUUGAGAGCAUCUUCGGAUGCAGAGGCGGCAGCCUUCGGUGGCGCGAUAGCGCUACCAUUCUCAACUAUGACACGCAAAACGCGUGCUCCGUUGAAUGGAGUUUAUCAUG [A20C C96U A98C G100A]	≤ -4.2
GGAUCUUCUCGAUCUAACACAAAAGACAAAUCUGCCACAAAGCUUGAGAGCAUCUUCGGAUGCAGAGGCGGCAGCCUUCGGUGGCGCGAUAGCGCCAACGUUGUCAACUAUGACACGCAAAACGCGUGCUCCGUUGAAUGGAGUUUAUCAUG [A20C C103G]	-1.28
GGAUCUUCUCGAUCUAACACAAAAAACAAAUCUGCCACAAAGCUUGAGAGCAUAUUCGGAUGUAGAGGCGGCAGCCUUCGGUGGCGCGAUAGCGCCAACGUUCUCAACUAUGACACGCAAAACGCGUGCUCCGUCGAAUGGAGUUUAUCAUG [A20C G25A C54A C63U U135C]	≤ -4.2
GGAUCUUCUCGAUCUAACACAAAACACGAAUCUGCCAGAAAGAUUGAGAGCAUCUUCGGAUGCAGAGGCGGCAGCCUUCGGUGUCGCGAUAGCGCCAACGUUCUCAACUAUGACACGCAAAACGCGUGCUCCGUUGAAUGGAGUUUAUCAUG [A20C G25C A28G C38G C43A G84U]	≤ -4.2
GGAUCUUCUCGAUCUAACACAAAACACAAAUCUGCCACAAAGCUUGAGAGCAUCUUCGGAUGCAGAGGCGGCAGCCUUCGGUGGUGCGAUAGCGCCAACGUUCUCAACUAUGACACACAAAACGCGUGCUCCGUUGAAUGCAGUUUAUCAUG [A20C G25C C85U G117A G141C]	≤ -4.2
GGAUCUUCUCGAUCUAACACAAAACACAAAUCUGCCACAAAGCUUGAGAGCAUCUUCGGAUGCAGAGGCGGCAGCCUUCGGUGGCGCGAUACUGCCAACGUUCUCAACUAUGACACGCAAAACGCGUGCUCCGUUGAAUGGAGUUUAUCAUG [A20C G25C G92C C93U]	≤ -4.2
GGAUCUUCUCGAUCUAACACAAAAGACAAAUCUUCCACAAAGCUUGUGCGCAACUUCGGAUGCAGAGGCGGCAGCCUCCGGUGGCACGAUAGCGCCAACGUUCUCAACUAUCACACGCAAAACGCGUGCUCCGUUGAAUGGAGUUUAUCAUG [A20C G34U A47U A49C U53A U78C G86A G112C]	≤ -4.2
GGAUCUUCUCGAUCUAACACAAAAGACAAAUCUUCCACAAAGCUUGUUAGCAUCUUCGGUUGCAGAGGCGGCAGCCCUCGGUGGCGCAAUAGGGCCAACGUUCUCAACUAUGACGCGCAAAACGCGUGCUCCGUUGUAUGGAGUUUAUCAUG [A20C G34U A47U G48U A60U U77C G88A C93G A115G A137U]	≤ -4.2
GGAUCUUCUCGAUCUAACACAAAAGACAAAUCUGCCACAAAGCUUCAGCGCAUCUUCGGAUGCAGUGUCGGCAGCCUUCGGUGACGCGAUAGCGCCAACGUUCUCAACUAUGACACGCAAAACGCGUGCUCCAUUGAAUGGAGUUUAUCAUG [A20C G46C A49C A66U G68U G84A G133A]	≤ -4.2
GGAUCUUCUCGAUCUAACACAAAAGACAAAUCUGCCACAAAGCUUUAGAGCAUCUUCGGAUGCAGAGGCGGCAGCCUUCGGUGGCGCGAUAGUGCCAACGUUCUCAACUAUGACUCGCAAAACGCGUUCUCCGUUGAAUGGAGUUUAUCAUG [A20C G46U C93U A115U G128U]	≤ -4.2
GGAUCUUCUCGAUCUAACACAAAAGACAAAUCUGCCACAAAGCUUGAUAGCAUCUUCGAAUGCAGAGGCGGCAGCCUUCGGUGGCGCGAUAGCGCCAACGUUCUCAACUAUGACACGCUAAACGCGUGCUCCGUAGAAUGGAGUUCAUCAUG [A20C G48U G59A A119U U135A U146C]	-2.07
GGAUCUUCUCGAUCUAACACAAAAGACAAAUCUGCCACAAAGCUUGAGACCAUCUUCGGAUGCAGACGCGGCAGCCUUCGGUGGCUCGAUAGCGCCAACGUUCUCAACUAUGACACGCAAAACGCGUGCUCCGUUGAAUGGAGUUUAUCAUG [A20C G50C G67C G86U]	≤ -4.2
GGAUCUUCUCGAUCUAACACAAAAGACAAAUCUGCCACAAAGCUUGAGACCAUCGUCGGAUGCAGAGGCGGCAGCCUUCGGUGGCGCGAUAGCGCCAACGUUCUUAACUAUGACACGCAAAACGCGUGCUCCGUUGAAUGGAGUUUAUCAUG [A20C G50C U55G C105U]	≤ -4.2
GGAUCUUCUCGAUCUAACACAAAAGACAAAUCUGCCACAAAGCUUGAGAUCAUCUUCGGAUGCAGAGGCGGCAGCCUUCGGUUGCGCGAUAGCGCCAACGUUCUCAACUAUGACACGCAAAACGCGUGCUCCGUUGAAUGGAGUUUAUCAUG [A20C G50U G83U]	-0.904
GGAUCUUCUCGAUCUAACACAAAAGACAAAUCUGCCACAAAGCUUGAGAGCAUCUUCGGAUGCAGAGCCGGCAGCCUUCGGUGGCGCGAUAGCGCCAUGGUUCUCAACUAUGACACGCAAAACGCGUGCUCCGUUGAAUUGAGUUUAUCAUG [A20C G68C A98U C99G G140U]	≤ -4.2
GGAUCUUCUCGAUCUAACACAAAAGACAAAUCUGCCACAAAGCUUGAGAGCAUCUUCGGAUGCAGAGGCGGCAGCCUUCUGUGGCGAGAUAGCGCCAACGUUCUCAACUAUGACACGCAAAACGCGUGCUCCGUUGAAUGUAGUUUAUCAUG [A20C G80U C87A G141U]	≤ -4.2
GGAUCUUCUCGAUCUAACACAAAAGACAAAUCUGCCACAAAGCUUGAGAGCAUCUUCGGAUGCAGAGGCGGCAGCCUUCGGUAGAGCGAUAGCGCCAACGUUCUCAACUAUGACACGCAAAACGCGUGCUCCGUUGAAUGGAGUUUAUCAUG [A20C G83A C85A]	≤ -4.2
